Laboratory results as given in article PMC4336329 (PLoS ONE, 2015).
Hit rate of the full screen: of about 310,000 compounds, about 2,200 (0.71%) showed an effect of 50% or more. The effect is printed as a negative number. This is one part of the list.

The compounds below were run against human ether-à-go-go-related gene (hERG) potassium channel (human, UniProt Q12809) (assay: primary screen, population patch clamp on CHO cells stably expressing hERG).
human ether-à-go-go-related gene (hERG) potassium channel, sequence (Q12809 whole entry, looked up): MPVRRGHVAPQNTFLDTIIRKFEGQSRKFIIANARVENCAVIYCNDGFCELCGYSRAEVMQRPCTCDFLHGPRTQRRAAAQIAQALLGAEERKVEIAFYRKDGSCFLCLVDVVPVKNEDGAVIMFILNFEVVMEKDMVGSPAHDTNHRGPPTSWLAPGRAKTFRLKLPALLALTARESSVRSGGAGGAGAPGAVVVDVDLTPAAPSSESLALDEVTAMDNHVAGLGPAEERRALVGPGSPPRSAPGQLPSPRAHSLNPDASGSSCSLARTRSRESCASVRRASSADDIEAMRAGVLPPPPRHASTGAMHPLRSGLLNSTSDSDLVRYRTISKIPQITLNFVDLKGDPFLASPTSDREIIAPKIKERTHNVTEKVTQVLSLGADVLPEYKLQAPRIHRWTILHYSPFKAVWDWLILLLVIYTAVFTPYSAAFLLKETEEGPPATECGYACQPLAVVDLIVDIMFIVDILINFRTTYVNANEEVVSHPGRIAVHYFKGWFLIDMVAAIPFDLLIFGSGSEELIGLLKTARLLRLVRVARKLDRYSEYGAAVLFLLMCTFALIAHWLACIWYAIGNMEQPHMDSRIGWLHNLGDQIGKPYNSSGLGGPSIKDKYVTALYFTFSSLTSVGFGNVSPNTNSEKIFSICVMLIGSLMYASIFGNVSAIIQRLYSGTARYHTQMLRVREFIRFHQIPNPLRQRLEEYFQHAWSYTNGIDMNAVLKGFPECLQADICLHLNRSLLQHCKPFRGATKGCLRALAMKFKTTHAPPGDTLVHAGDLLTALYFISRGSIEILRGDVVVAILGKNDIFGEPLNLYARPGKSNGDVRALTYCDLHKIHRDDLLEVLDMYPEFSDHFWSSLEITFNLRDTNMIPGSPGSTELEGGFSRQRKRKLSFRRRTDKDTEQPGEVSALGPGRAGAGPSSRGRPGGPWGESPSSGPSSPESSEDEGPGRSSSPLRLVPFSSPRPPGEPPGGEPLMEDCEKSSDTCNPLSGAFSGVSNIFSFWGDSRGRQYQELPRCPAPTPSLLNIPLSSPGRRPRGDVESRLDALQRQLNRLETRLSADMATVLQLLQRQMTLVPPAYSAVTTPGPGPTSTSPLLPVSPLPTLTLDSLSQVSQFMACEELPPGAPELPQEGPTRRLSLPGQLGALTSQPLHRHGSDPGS

Going from `COc1cc2[nH]c(C(=O)NN)c(N)c2cc1OC` to `COc1cc2nc(COc3ccccc3[N+](=O)[O-])oc(=O)c2cc1OC`, the “hERG current change (%, negative = inhibition) at 1uM” value falls from 14.7% to 7.19%.

Compared with `COc1ccc(NC(=O)[C@H](C)NC(=O)[C@@H]2Cc3ccccc3CN2C(=O)OC(C)(C)C)cc1`, `CC(=O)Nc1ccc(NC(=O)C(C)OC(=O)C2CC(=O)N(CCc3ccccc3)C2)cc1` (stereo not drawn) is lower in “hERG current change (%, negative = inhibition) at 1uM” value: 19% for the first, 11.6% for the second.

Going from `Cc1ccc(S(=O)(=O)N(C)C)cc1NC(=O)COC(=O)/C=C/c1cnc2ccccc2n1` to `CCCCN1C(=O)C(=O)N(CC(=O)Nc2cc(S(=O)(=O)N(C)C)ccc2C)C1=O`, the “hERG current change (%, negative = inhibition) at 1uM” value falls from 20% to 9.82%.

First: Cc1ccc2c(=O)n3c(nc2c1)C(Cc1ccccc1)NC(=O)c1ccc(Cl)cc1-3 (stereo not drawn)
Second: COc1ccccc1-c1c(C)[nH]n2c(=O)c(Cc3ccccc3)c(C)nc12
The “hERG current change (%, negative = inhibition) at 1uM” value of the first is higher: 10.3% for the first, 5.73% for the second.

First: CC(C)n1c(O)c(C=NCc2ccccc2)c(=O)[nH]c1=S
Second: S=C(NCc1ccccc1)NCc1ccccc1Cl
The “hERG current change (%, negative = inhibition) at 1uM” value of the first is higher: 17.3% for the first, 9.77% for the second.

Compared with `CC(C)(C)OC(=O)NCCCC[C@H](NC(=O)c1nc[nH]c1C(=O)NC(c1ccccc1)c1ccccc1)C(=O)OC(C)(C)C`, `CC(Oc1ccccc1F)C(=O)NNC(=O)CCNC(=O)c1ccccc1Cl` (stereo not drawn) is lower in “hERG current change (%, negative = inhibition) at 1uM” value: 7.55% for the first, 6.7% for the second.

Going from `COc1ccc(-n2nnnc2S(=O)(=O)Cc2ccc(C(=O)O)cc2)cc1` to `COc1ccc(C2=CC(c3ccc(F)cc3)n3nnnc3N2)cc1` (stereo not drawn), the “hERG current change (%, negative = inhibition) at 1uM” value rises from 12.5% to 15.9%.

Going from `COc1ccc(-c2cc3ccccc3s2)cc1[C@H]1[C@H]2C=CC[C@@H](C)[C@@H]2C(=O)N1Cc1ccccc1` to `COc1ccc(CCNC(=O)/C(C#N)=C/c2cccc(OCc3ccccc3)c2)cc1OC`, the “hERG current change (%, negative = inhibition) at 1uM” value falls from 5.88% to 5.27%.

First: CCc1ccccc1Nc1cc(C(=O)NCc2ccccn2)c2ccccc2n1
Second: O=C(CN1C(=O)c2ccccc2S1(=O)=O)Nc1ccccc1C(=O)NCc1ccco1
The “hERG current change (%, negative = inhibition) at 1uM” value of the first is lower: -1.94% for the first, 8.6% for the second.

Compared with `Cc1ccccc1CC(=O)Nc1ccon1`, `Cc1ccc(/C=N\NC(=O)Cc2noc3ccccc23)cc1` is higher in “hERG current change (%, negative = inhibition) at 1uM” value: 10.2% for the first, 10.7% for the second.

Compared with `CC(=O)COC(=O)C1=NN(c2ccccc2)C(=O)CC1`, `CCOC(=O)C[C@H]1c2ccccc2S(=O)(=O)N1c1ccccc1` is lower in “hERG current change (%, negative = inhibition) at 1uM” value: 17.6% for the first, 14.3% for the second.

Going from `COc1cccc(CC2(CO)CCN(Cc3cn(C)nc3C)CC2)c1` to `Cc1nc2c(-c3ccccc3)c(C)nn2c(C)c1CCC(=O)N1CCC2(CC1)OCCO2`, the “hERG current change (%, negative = inhibition) at 1uM” value falls from 17.4% to -14.1%.

First: O=C(c1ccc(Br)c(S(=O)(=O)N2CCCCC2)c1)N1CCCCC1
Second: O=C(c1ccc2c(c1)OCO2)N1CCN(S(=O)(=O)c2ccc(Br)cc2Cl)CC1
The “hERG current change (%, negative = inhibition) at 1uM” value of the first is higher: 9.79% for the first, -10.1% for the second.

First: Cc1ccc(-c2nnc(-c3ccccc3S(=O)(=O)Cc3ccc(Cl)cc3)o2)cc1
Second: O=C(Cn1cnc2c(nnn2Cc2ccc(F)cc2)c1=O)OCc1ccccc1
The “hERG current change (%, negative = inhibition) at 1uM” value of the first is lower: 5.87% for the first, 6.54% for the second.

First: COc1ccc(N(CC(=O)NCCc2ccccc2)C(=O)CCC(=O)Nc2nccs2)cc1
Second: CN(C)C(=O)c1ccc(NC(=O)c2sccc2-c2ccccc2)cc1
The “hERG current change (%, negative = inhibition) at 1uM” value of the first is higher: 11.3% for the first, 9.11% for the second.

First: O=C1c2ccc(Oc3cccc([N+](=O)[O-])c3)cc2C(=O)N1c1ccccn1
Second: CCC1=NN(C(=O)Cc2ccc([N+](=O)[O-])cc2)C(O)(c2ccc(Br)cc2)C1 (stereo not drawn)
The “hERG current change (%, negative = inhibition) at 1uM” value of the first is higher: 12.6% for the first, 2.03% for the second.

Compared with `Cc1ccc(NC(=O)c2cc([N+](=O)[O-])ccc2N2CCOCC2)cc1S(=O)(=O)N(C)C`, `Cc1cccc(NC(=O)c2cccc(S(=O)(=O)N3CCCC3)c2)n1` is higher in “hERG current change (%, negative = inhibition) at 1uM” value: 3% for the first, 8.94% for the second.

Compared with `C/C(=N/NC(=O)c1ccc2nc[nH]c2c1)c1cccs1`, `O=C(COC(=O)c1cccs1)NCc1cccs1` is higher in “hERG current change (%, negative = inhibition) at 1uM” value: 8.84% for the first, 17.1% for the second.

Compared with `C(=N\Nc1ccc2ccccc2n1)/c1ccc2c(c1)OCCO2`, `Cc1cc2ncn(/N=C/c3ccc4c(c3)OCO4)c2cc1C` is higher in “hERG current change (%, negative = inhibition) at 1uM” value: 9.97% for the first, 21.3% for the second.

Going from `Cc1nc2nc(SCC(=O)O)nn2c(C)c1Cc1ccccc1Cl` to `CCCc1nn2c(=O)cc(CSCC(=O)Nc3ccccc3OC)nc2s1`, the “hERG current change (%, negative = inhibition) at 1uM” value rises from 5.58% to 10.5%.

Going from `O=C(CN1C(=O)c2ccccc2S1(=O)=O)N1CCOCC1` to `O=C(CN1CCCC1)N1CCCc2ccccc21.O=C(O)C(=O)O`, the “hERG current change (%, negative = inhibition) at 1uM” value rises from 5.46% to 11%.

Going from `Cc1ccc(NC(=O)CN(C)C(=O)c2sc3cc(Cl)ccc3c2Cl)cc1` to `O=C(O)CCNC(=O)c1ccc(NC(=O)Cc2ccc(Cl)cc2)cc1`, the “hERG current change (%, negative = inhibition) at 1uM” value falls from 19.6% to 15.7%.

Going from `CCC(=O)N(CCC(Cc1ccccc1)c1ccc2c(c1)OCO2)Cc1ccccc1F` (stereo not drawn) to `CCC1Oc2ccc(C)cc2N(CC(=O)N(Cc2ccncc2)Cc2ccco2)C1=O` (stereo not drawn), the “hERG current change (%, negative = inhibition) at 1uM” value falls from 3.46% to -5.23%.

First: COc1ccc2sc(-c3ccccc3OC)c(C#CC(C)(C)O)c2c1
Second: CCOc1ccc(N/C=C/C(=O)c2cc(OC)c(OC)c(OC)c2)cc1
The “hERG current change (%, negative = inhibition) at 1uM” value of the first is higher: 14.8% for the first, 10.3% for the second.

First: COc1cc(C(=O)c2c(C)c(CCC#N)n3ccccc23)cc(OC)c1OC
Second: CCOC(=O)C1=C(CC)OC(N)=C(C#N)C1c1ccc(OC)c(OC)c1OC (stereo not drawn)
The “hERG current change (%, negative = inhibition) at 1uM” value of the first is lower: 3.09% for the first, 11% for the second.

First: Cc1cc(C)c(C)c(C(=O)c2ccccc2C(=O)O)c1C
Second: CSc1ccc(C#N)cc1NC(=O)c1ccccc1C
The “hERG current change (%, negative = inhibition) at 1uM” value of the first is higher: 6.64% for the first, -8.04% for the second.

First: O=C(O)/C(=C\c1ccc(Cl)cc1)c1ccc(F)cc1
Second: COc1nccnc1NS(=O)(=O)c1ccc(NC(=S)NC(=O)c2ccc(F)cc2)cc1
The “hERG current change (%, negative = inhibition) at 1uM” value of the first is higher: 13.5% for the first, 11.4% for the second.

Going from `Cc1cccc(-n2ncc3c(Nc4ccc(F)cc4)ncnc32)c1` to `O=C(Nc1nnc(-c2ccc(F)cc2)s1)c1ccco1`, the “hERG current change (%, negative = inhibition) at 1uM” value rises from 8.92% to 12.5%.

Compared with `Cc1ccc(S(=O)(=O)NCC(=O)N(CC(=O)NC2CCCCC2)Cc2ccco2)cc1`, `CC(=O)Nc1ccc(S(=O)(=O)NCCC(=O)OC(C)C(=O)c2ccc(C)cc2)cc1` (stereo not drawn) is higher in “hERG current change (%, negative = inhibition) at 1uM” value: -8.5% for the first, 7.3% for the second.

Compared with `COC(=O)C1=C(C)NC(c2c(O)ccc3ccccc23)C(C(=O)OC)=C1C` (stereo not drawn), `COC(=O)C1=CN(c2cc(C)cc(C)c2)C=C(C(=O)OC)C1c1cccc(F)c1` is higher in “hERG current change (%, negative = inhibition) at 1uM” value: 12.7% for the first, 12.9% for the second.

Compared with `CCCCCN1CC(=O)N2Cc3[nH]c4ccccc4c3C[C@H]2C1=O`, `Cc1ccc2c(c1)NC(=O)C(CC(=O)NCCCN1CCCCC1)O2` (stereo not drawn) is lower in “hERG current change (%, negative = inhibition) at 1uM” value: 8.21% for the first, 6.37% for the second.

Going from `COC(=O)CN1C(=O)N/C(=C/c2cc3c(cc2OC)OCO3)C1=O` to `COc1cc(/C=N\NC(=O)c2c(C)nc3cc(C)ccn23)ccc1O`, the “hERG current change (%, negative = inhibition) at 1uM” value rises from 8.5% to 10.1%.

First: COC(=O)c1ccc(NC(=O)CCS(=O)(=O)c2ccc(Br)s2)cc1
Second: Cc1ccc(CNC(=O)COc2ccc3c(c2)CCC3)cc1
The “hERG current change (%, negative = inhibition) at 1uM” value of the first is higher: 26.4% for the first, -2.48% for the second.

Going from `COc1cccc2c1OCC([C@@H]1C[C@H]3CN(Cc4cccc(Cl)c4)C(=O)[C@]34CCCN14)=C2` to `O=C(NCCc1ccccc1)C1CCC(CNc2c(N3CCCCC3)c(=O)c2=O)CC1` (stereo not drawn), the “hERG current change (%, negative = inhibition) at 1uM” value rises from -1.56% to 20.4%.

First: CCCNC(=O)C1(CC2CC(c3ccccc3)=NO2)CCN(C(=O)OC(C)(C)C)CC1 (stereo not drawn)
Second: CC1(C)CC2CC(C)(CN2C(=S)NC(=O)c2ccccc2Cl)C1 (stereo not drawn)
The “hERG current change (%, negative = inhibition) at 1uM” value of the first is lower: -6.42% for the first, 5.28% for the second.

Compared with `COC(=O)c1scc(C)c1NC(=O)C1CCCCC1`, `CC1(OC(=O)C2CCCC2)C(=O)C=C2C=C3CCCCN3C=C2C1=O` (stereo not drawn) is higher in “hERG current change (%, negative = inhibition) at 1uM” value: 6.21% for the first, 17.8% for the second.

Going from `CN(C(=O)C1CCCC1)C1CCS(=O)(=O)C1` (stereo not drawn) to `O=C(O)CCCC(=O)N1CCOCCOCCOCCOCC1`, the “hERG current change (%, negative = inhibition) at 1uM” value rises from 8.21% to 11.5%.

First: Cc1ccc(C(C(=O)NCc2ccco2)N(C(=O)Cc2cccs2)c2cccnc2)cc1 (stereo not drawn)
Second: O=C(CSc1ccccc1)Nc1ccccc1C(=O)O
The “hERG current change (%, negative = inhibition) at 1uM” value of the first is higher: 15.4% for the first, 8.75% for the second.

Going from `COc1ccc(/C=N/Nc2ncnc3sc4c(c23)CCCC4)cc1OC` to `N/C(=N\OC(=O)Nc1ccc(Cl)c(Cl)c1)c1ncc(C(F)(F)F)cc1Cl`, the “hERG current change (%, negative = inhibition) at 1uM” value falls from 7.16% to 6.75%.

Compared with `COC(=O)c1cn(-c2cccc(C)n2)cn1`, `Cc1cc(C)n(C(=O)CNC(=O)c2ccc(Cl)cc2Cl)n1` is lower in “hERG current change (%, negative = inhibition) at 1uM” value: 11.5% for the first, 3.96% for the second.

First: COP(=O)(OC)C(Nc1ccccc1)c1ccccc1 (stereo not drawn)
Second: NC(=O)NC(=O)COC(=O)c1cccnc1Nc1ccccc1F
The “hERG current change (%, negative = inhibition) at 1uM” value of the first is higher: 12.8% for the first, 10.1% for the second.

Compared with `C(#CCN1CCOCC1)COCC#Cc1ccccc1.Cl`, `O=C1CC(NNC(=O)c2cccc(F)c2)C(=O)N1` (stereo not drawn) is higher in “hERG current change (%, negative = inhibition) at 1uM” value: 0.237% for the first, 12.8% for the second.

Compared with `CNC(=S)NNC(=O)c1cccc(C(F)(F)F)c1`, `C=CCC(C(=O)OC)(C(=O)OC)c1ccc([N+](=O)[O-])cn1` is lower in “hERG current change (%, negative = inhibition) at 1uM” value: 4.97% for the first, -1.87% for the second.

With `CCc1nnc(NC(=O)CSc2nnc(C3CC3)n2C)s1` the “hERG current change (%, negative = inhibition) at 1uM” value was 4.74%.
